Laboratory results from PubChem BioAssay AID686978 (National Center for Advancing Translational Sciences (NCATS), 2013).
In all, about 420,000 compounds went through this assay and about 64,000 (15%) were called active. The inconclusive results got no clear call from the source; some entries with a clear call stand among them for comparison. Calls come from the whole dose curve; as a rule, active = well fitted inhibition curve with a large enough effect; inconclusive = small, poorly fitted or top-dose-only effect; inactive = flat fitted curve, though single readings scatter. No potency is given beside an inconclusive call; the fits are too rough.

Experiment: qHTS for Inhibitors of human tyrosyl-DNA phosphodiesterase 1 (TDP1): qHTS in cells in absence of CPT; note: nearly all actives have a fitted effect of over 55% in size
Conditions: DT40 Tdp1-/- hTDP1 cells, no CPT, ATP luminescence, 48 h; activity change, negative = growth inhibition: at 46.2 µM (top of the series) unless noted
Procedure, shortened: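 A cellular qHTS used chicken DT40 cells lacking endogenous Tdp1 but carrying stably transfected human TDP1. Compounds were applied without camptothecin, and cell growth kinetics were judged by ATP-dependent luminescence after ≥48 hr.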
% is set by controls: 0 for no effect and ±100 for the full control effect; potency is the fitted concentration of half-maximal effect; tags give direction and shape of the fitted curve.

Structure (SMILES) | Potency | activity change, negative = growth inhibition
COc1cc(CN2CCC(CO)(Cc3cccc(C(F)(F)F)c3)CC2)ccc1F | active: 23.1 µM | –
CCOC(=O)c1c(C)[nH]c(CCC(=O)NCc2cc(Br)ccc2OC)c1C | active: 18.4 µM | –
O=C(Cn1cnc2ccccc2c1=O)c1ccc(OC(F)F)cc1 | – | inactive: -11.2%
O=C(O)CSc1ncnc2scc(-c3ccc(Br)cc3)c12 | – | inactive: 15%
CC(=O)c1nn(-c2cccc(Br)c2)cc1C(=O)c1ccc(Br)cc1 | active: 11.6 µM | –
CCc1c(C)nc(Nc2nc(C)c3cc(OC)ccc3n2)[nH]c1=O | active: 20.6 µM | –
CCOc1ccccc1-c1nnc(SCC(=O)NC2CC2)n1CC | – | inactive: 3.7%
CCOC(=O)Cc1cc(=O)n2[nH]c(C)c(-c3ccc(Cl)cc3)c2n1 | active: 11.2 µM | –
COCCCNS(=O)(=O)c1cccc(S(=O)(=O)c2cccc(S(=O)(=O)NCCCOC)c2)c1 | – | inactive: -19.7%
CC(C)c1ccc(N(CC(=O)NCc2ccc(F)cc2)C(=O)c2snc(C(N)=O)c2N)cc1 | inconclusive [inhibitor, single point] | –
COc1ccc(NC(=O)N2CCC3(CC2)CCN(C(=O)c2cccn2C)CC3)cc1 | inconclusive [inhibitor, partial curve] | –
Cc1onc(-c2c(Cl)cccc2Cl)c1C(=O)N1CCN(c2ncccn2)CC1 | inconclusive [inhibitor, single point] | –
CC1(C)CC(=O)C=C(c2ccc(-c3ccc(OC(F)(F)F)cc3)cc2)C1=O | active: 10.3 µM | –
O=S(=O)(c1cccc(-c2nc3n(n2)Cc2ccccc2-3)c1)N1CCCC1 | inconclusive [inhibitor, single point] | –
Cc1ccc(NC(=O)c2cc(NC(=O)c3ccco3)ccc2N2CCOCC2)cc1Cl | inconclusive [inhibitor, partial curve] | –
O=c1c(-c2ccc(Oc3ccccc3)cc2)[n+]([O-])c2ccccc2n1OCc1ccccn1 | inconclusive [inhibitor, full curve, poor fit] | –
CC(=O)c1cccc(NC(=O)N2CCCC2C(=O)Nc2ccc3c(c2)OCO3)c1 (stereo not drawn) | – | inactive: 4%
CCc1nnc(NC(=O)CN2CCN(Cc3ccc(C)cc3)CC2)s1 | – | inactive: -2.14%
CC(C)C(=O)N1CCN(c2ccccc2NC(=O)Cc2ccc(Cl)cc2)CC1 | inconclusive [inhibitor, partial curve, poor fit] | –
Cc1c(C(=O)N2CCCC2)oc2c1-c1nn(CC(=O)NCc3ccccc3F)cc1CC2 | inconclusive [inhibitor, partial curve] | –
C=CCOC(=O)C1=C(C)Nc2nnnn2C1c1cccs1 (stereo not drawn) | – | inactive: -27.8%
CCN(CC)CCC(O)(c1ccccc1)C1CCCCC1 (stereo not drawn) | – | inactive: 8.77%
Oc1ccc(/C=N/NC(=S)NCCN2CCOCC2)c(O)c1 | inconclusive [inhibitor, full curve] | –
Cc1ccc(Cc2c(-c3ccc(C#N)cc3)nc3c(C)cc(Br)cn23)cc1 | inconclusive [inhibitor, single point] | –
C[C@@H]1CN([C@H](C)CO)S(=O)(=O)c2ccc(Br)cc2O[C@@H]1CN(C)C(=O)NC1CCCC1 | inconclusive [inhibitor, single point] | –

Structure (SMILES) | Potency | activity change, negative = growth inhibition
COC(=O)c1sc(NC(=O)Cc2cccs2)nc1C | inconclusive [inhibitor, partial curve] | –
COc1ccc(Cl)cc1NC(=O)C1COc2ccccc2O1 (stereo not drawn) | inconclusive [inhibitor, single point] | –
COc1ccc(OC)c(C2=NOC(C(=O)NCc3cccnc3)C2)c1 (stereo not drawn) | – | inconclusive: -31.9% [inhibitor]
Cc1cc(C(=O)N2CCN(c3ccc([N+](=O)[O-])cc3)CC2)n[nH]1 | active: 2.59 µM | –
COc1ccccc1C(=O)Nc1ccc(N2CCN(Cc3ccccc3)CC2)cc1 | inconclusive [inhibitor, partial curve] | –
Cc1sc(NC(=O)C2c3ccccc3Oc3ccccc32)c(C(=O)OC(C)C)c1C | inconclusive [inhibitor, single point] | –
CCN(c1cccc(C)c1)S(=O)(=O)c1cc2c3c(c1)CCC(=O)N3CCC2 | inconclusive [inhibitor, single point] | –
O=C(CCSc1ccc(Cl)cc1)N1CCCCCC1 | inconclusive [inhibitor, single point] | –
CCCCn1c(N)c(N(CCOC)C(=O)c2ccc(C)o2)c(=O)[nH]c1=O | – | inactive: -1.89%
C=CCNC(=S)Nc1sc2c(c1C(=O)OCC)CCN(C(=O)OCC)C2 | – | inactive: -25.7%
COc1ccc(NC(=O)Nc2nnc(C(C)C)s2)cc1 | inconclusive [inhibitor, partial curve] | –
COc1ccc(S(=O)(=O)NCc2cccnc2)c(Cl)c1Cl | – | inactive: 12.9%
Cc1ccc(CNC(=O)COC(=O)c2ccc(S(=O)(=O)N3CCCCCC3)cc2)cc1 | inconclusive [inhibitor, partial curve] | –
CCc1nn2c(=O)c(S(=O)(=O)Nc3ccc(C)cc3C)c(C)nc2s1 | inconclusive [inhibitor, single point] | –
COc1ccc(C(=O)CN2C(=O)c3ccccc3C2=O)cc1 | – | inactive: 5.96%
Cc1nc2nc(-c3ccc(F)cc3)cn2nc1C | inconclusive [inhibitor, full curve, poor fit] | –
Cc1cc(N2CCCC2)nc2ccc(NC(=S)NCCCN3CCC(C)CC3)cc12 | inconclusive [inhibitor, single point] | –
COc1cccc(NC(=O)C(C)N2C(=O)c3ccccc3S2(=O)=O)c1 (stereo not drawn) | – | inactive: 2.51%
Cc1cc(NC(=O)CSc2nc3c(cc2C#N)CCCC3)no1 | inconclusive [inhibitor, single point] | –
COc1ccccc1OCCNC(=O)c1ccco1 | – | inactive: 26.1%
CN(C)C(=O)c1ccc(NC(=O)COc2cccc3c2OC(C)(C)C3)cc1 | inconclusive [inhibitor, single point] | –
COc1ccccc1CNC(=O)c1cc2cccc3c2n1CCS3 | inconclusive [inhibitor, single point] | –
COc1cc(-c2cnc3c(NC(C)=O)cc(-c4ccc(N5CCN(C)CC5)cc4)cn23)cc(OC)c1OC | active: 4.61 µM | –
O=C(NCc1ccc(F)cc1)C1CCN(c2cnccn2)CC1 | inconclusive [inhibitor, single point] | –
CCN(C(=O)c1cc2c(s1)-c1ccccc1OC2)c1cc(OC)ccc1OC | inconclusive [inhibitor, single point] | –

Structure (SMILES) | Potency | activity change, negative = growth inhibition
CCOC(=O)C1=C(c2ccccc2)c2ccccc2N(S(=O)(=O)C(F)(F)F)C1C(=O)OCC (stereo not drawn) | inconclusive [inhibitor, single point] | –
COc1ccc([N+](=O)[O-])cc1NC(=O)CCSCCc1ccccn1 | inconclusive [inhibitor, partial curve] | –
O=C(NCc1ccc(Cl)cc1)C(=O)NCC1CCCN1S(=O)(=O)c1cccs1 (stereo not drawn) | inconclusive [inhibitor, single point] | –
Cc1ccc(CNC(=O)C2CC(c3ccccc3[N+](=O)[O-])=NO2)o1 (stereo not drawn) | inconclusive [inhibitor, single point] | –
CN1CCN(c2ccc(C(F)(F)F)cc2NC(=O)c2ccco2)CC1 | inconclusive [inhibitor, single point] | –
CC(C)CSc1nc(N2CCOCC2)c2c(c1C#N)CC(C)(C)SC2 | inconclusive [inhibitor, single point] | –
N#Cc1ccccc1NC(=O)Nc1ccc(Cl)cc1 | – | inactive: -8.5%
Cc1ccc(NC(=O)CN(C)C(=O)c2ccc(Cl)c([N+](=O)[O-])c2)cc1 | inconclusive [inhibitor, single point] | –
CN(C1CCS(=O)(=O)C1)S(=O)(=O)c1ccccc1[N+](=O)[O-] (stereo not drawn) | – | inconclusive: -23.4% [inhibitor]
CCOCCCN1CN(Cc2ccco2)CNC1=S | – | inactive: -2.09%
COc1ccccc1/C=N/NC(=O)c1cc2c(ccc3ccccc32)o1 | inconclusive [inhibitor, single point] | –
COc1ccc(-c2nnc(Nc3nc4c(OC)cccc4s3)o2)c(OC)c1 | active: 4.11 µM | –
C/C=C(\C)C(=O)O[C@H](c1cc2ccc(=O)oc2cc1OC)[C@@H](O)C(C)(C)O | – | inactive: 21.6%
CCCc1nc2sc3c(=O)n(N)cnc3c2c2c1CCCC2 | active: 9.2 µM | –
COc1ccc(OC)c(C2CC(=O)N3CN(c4ccccc4)CSC3=C2C#N)c1 (stereo not drawn) | inconclusive [inhibitor, single point] | –
COc1ccc(Cl)cc1-n1c(C)cc(C(=O)O)c1C | – | inconclusive: -32.9% [inhibitor]
COc1ccccc1N(CCC#N)C(=O)CSc1nc(-c2ccccc2)cn1N | – | inactive: -16.7%
CCN(c1ccc(F)cc1)S(=O)(=O)c1cccc2nsnc12 | – | inactive: -6.93%
O=C(CSCc1cc(=O)n2ccsc2n1)Nc1ccccc1 | – | inactive: 11.5%
Cc1cc(C)c(C2=NOC3C4CCC(C4)C23)c(C)c1 (stereo not drawn) | inconclusive [inhibitor, partial curve] | –
CC(=O)c1cc(C#N)c(SCc2ccccc2C#N)nc1C | – | inconclusive: -31.3% [inhibitor]
Cc1cc(C(=O)NNS(=O)(=O)c2cc(C(=O)O)ccc2Cl)c(C)n1-c1ccccc1 | – | inactive: 2.17%
COc1ccc(CCNC(=O)CCn2c(SCC(=O)N3CCCC3)nc3ccccc3c2=O)cc1OC | inconclusive [inhibitor, single point] | –
